The structures appear in SMILES notation. About 1,200 (2.5%) of roughly 48,000 compounds were called active. Roughly 2% stayed inconclusive and do not appear here.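 How the source made its calls: active means activation of at least 60% and not above a set upper limit (about 1 call in 100 departs from these limits); inconclusive means activation of 40% to 60%, or above that upper limit; inactive means activation under 40%.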 The list shows a part of the results.

The target in the experiment is Probable G-protein coupled receptor 32 (Homo sapiens) (UniProt O75388). The experiment can be described thus: qHTS for Agonists of Human Resolvin D1 Receptor DRV1. Further: 0% is about no effect. The note with it: CHO-K1 GPR32 beta-arrestin PathHunter luminescence, 90 min; at 76.9 µM; active compounds read high; zero percent set by DMSO-only wells. The procedure, abridged: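 Agonism was scored as beta-arrestin recruitment to ProLink-fused GPR32 in stably transfected CHO-K1 cells, giving a chemiluminescent beta-Gal signal; compounds were incubated 90 min at 37 °C.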
Chain of UniProt O75388 (O75388 whole entry, looked up, the tested form may be a part): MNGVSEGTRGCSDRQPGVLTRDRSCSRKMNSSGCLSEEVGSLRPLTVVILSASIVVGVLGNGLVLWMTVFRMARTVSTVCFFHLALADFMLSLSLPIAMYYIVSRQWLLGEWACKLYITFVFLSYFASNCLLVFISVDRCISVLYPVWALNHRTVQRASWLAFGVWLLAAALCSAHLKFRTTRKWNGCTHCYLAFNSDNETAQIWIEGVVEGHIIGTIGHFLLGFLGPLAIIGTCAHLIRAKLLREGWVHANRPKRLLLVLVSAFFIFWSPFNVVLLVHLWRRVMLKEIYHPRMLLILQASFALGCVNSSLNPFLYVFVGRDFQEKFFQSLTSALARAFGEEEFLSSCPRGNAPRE
(In general: qHTS replaces the single test concentration by a dilution series.)
With `Cc1ccc(NC(=O)CN2C(=O)COc3ccc(S(=O)(=O)N4CCOCC4)cc32)c(Cl)c1`, the activation was inactive: -37.6%.
Under `COc1cccc(-n2cc(C(=O)Nc3ccccc3C(N)=O)c3ccccc3c2=O)c1` stands inactive: -11.4%; under `Cc1nc(SCCOc2ccc(Cl)cc2)[nH]c(=O)c1Cc1ccccc1`, inactive: -1.56%; under `O=C(c1cccc([N+](=O)[O-])c1)N1CCN(CCc2ccncc2)CC1`, inactive: -5.31%.
Under `CCOc1ccccc1NC(=O)c1nn(-c2ccc(OC)cc2)c(=O)c2c1c1ccccc1n2C` stands inactive: -1.89%; under `COc1ccc(N2CC(NC(=O)C3CCCC3)CC2=O)cc1` (centres undefined), inactive: -2.49%; under `COc1ccc(OC)c(CNC(=O)CCC(=O)N2Cc3ccccc3Oc3ncccc32)c1`, inactive: -3.63%.
In the case of `COc1ccc2nc(NC(=O)c3nc(SCc4cccc(C)c4)ncc3Cl)sc2c1`, the activation is inactive: -0.997%.
Under `Cc1ccccc1CNC(=O)Cn1cc2c(n1)-c1c(oc(C(=O)N3CCCC3)c1C)CC2` stands inactive: 6.43%.
For `COc1ccccc1NC(=O)C1=C(C)Nc2ncnn2C1c1sccc1C` (centres undefined) the value was inactive: -4.3%; for `CC1CCc2c(sc(NC(=O)COc3ccccc3C(C)(C)C)c2C#N)C1` (centres undefined), inactive: 18.3%; for `O=C(CSc1nc2c([nH]c3ccccc32)c(=O)n1-c1ccccc1)N1CCCCCC1`, inactive: -31.8%.
Under `O=C(O)c1ccc(NC(=O)c2cc3ccccc3o2)cc1` stands inactive: 1.88%; under `O=C(NCCCN1CCN(c2ccccc2F)CC1)c1cc2c(s1)-c1ccccc1OC2`, inactive: 7.3%.
For `Cc1ccc(NC(=O)Cn2c(SCc3ccc(F)cc3)nc3cccnc32)cc1F`, the activation is inactive: 0.328%.
`CSCCC(NS(=O)(=O)c1ccc2c(c1)oc(=O)n2C)C(=O)N1CCN(c2ccc(F)cc2)CC1` (centres undefined): the activation is inactive: -9.34%.
Under `CCCCOc1ccc(C(=O)N/C(=C\c2ccc(Br)cc2)C(=O)NC2CCCCC2)cc1` stands inactive: -5.18%; under `CCc1ccc(-n2nc(C)c3c(C)cc(=O)n(CC(=O)Nc4ccccc4C(=O)OC)c32)cc1`, inactive: 27.9%; under `CCc1cccc(NC(=O)CCS(=O)(=O)c2ccc3nc(C)sc3c2)c1`, inactive: 4.95%.
For `Cc1cccc(-n2ccnc2SCC(=O)Nc2ccc3c(c2)OCO3)c1` the value was inactive: 9.39%.
Consider `O=C(Nc1cccc(F)c1)C1CCN(c2nc3ccccc3[nH]2)CC1`, for which the activation was inactive: 6.02%.
Under `COc1ccc(CN2C(=O)c3oc4ccccc4c(=O)c3C2c2ccc(O)c(OC)c2)cc1` (centres undefined) stands inactive: -9.1%; under `COc1ccc(CNc2ncnc3c2cnn3-c2ccc(C)c(C)c2)cc1`, inactive: 0.619%; under `COc1cccc(C(=O)NC2CC(=O)N(c3ccc4c(c3)OCCO4)C2)c1OC` (centres undefined), inactive: 21.3%.
Under `CCCCSCCCNC(=O)C1CCC(CNS(=O)(=O)c2c(C)cc(C)cc2C)CC1` (centres undefined) stands inactive: -12.5%.
Regarding `CCOc1ccc(CNC(=O)c2ccc3c(c2)nc2n3CCC(C)C2)cc1OC` (centres undefined), the activation is inactive: -7.88%.
For `Cc1csc2nc(CCNS(=O)(=O)c3ccc(F)cc3)cn12` the value was inactive: -9.32%; for `CC(=O)c1ccc(NC(=O)CCc2c(C)nn(-c3ccc(N4CCCCC4)nn3)c2C)cc1`, inactive: -5.43%; for `Cc1cccc(Oc2ccc3c(c2)Oc2ccccc2NC3=O)c1`, active: 94.8%.
As to `Cc1ccc(NC(=O)Cn2cc(S(=O)(=O)N3CCC(C)CC3)c3ccccc3c2=O)c(Br)c1`, the activation is inactive: -2.46%.
Under `COc1ccc(CNC(=O)c2cnn(-c3ccc(F)cc3)c2-n2cccc2)cc1` stands inactive: -11.5%; under `CCCCN(CCCNC(=O)c1c(C)oc2nc[nH]c(=O)c12)Cc1ccccc1`, inactive: -15.7%; under `Cc1ccc(Nc2c(-c3cccnc3)nc3ccc(Br)cn23)cc1`, inactive: -0.556%.
Under `CNC(=O)c1c(NC(=O)c2ccc(S(=O)(=O)N3CCCCC3C)cc2)sc2c1CCC2` (centres undefined) stands inactive: -3.93%.
For `O=S(=O)(Nc1cccc(-c2ccc(N3CCCC3)nn2)c1)c1ccc(F)c(C(F)(F)F)c1` the value was inactive: -0.329%; for `COc1ccc(-c2nnc(SCC(=O)N(C)Cc3ccccc3)o2)cc1OC`, inactive: 1.14%.
For `COc1cccc(N2CCN(C(=O)CN3C(=O)COc4ccc(S(=O)(=O)N5CCC(C)CC5)cc43)CC2)c1`, the activation is inactive: 17.9%.
On to `CCOC(=O)c1cc(-c2ccccc2)n(-c2cccc(C(=O)Nc3cccc(C(C)=O)c3)c2)c1C`, for which the activation is inactive: -22.3%.
For the molecule `Cc1oc2c(c(C)cc3oc(=O)c(CC(=O)NCc4ccccc4)c(C)c32)c1C`, the activation is inactive: -2.56%.
For `COc1ccc(C)cc1-n1nnc(C(=O)Nc2cccc(SC)c2)c1C` the value was inactive: -2.23%; for `Cc1c(Cl)cccc1NC(=O)Cn1cc2c(n1)CCCC2`, inactive: -9.75%.
Under `COc1ccc(C(=O)NCC(c2cccnc2)N2CCc3ccccc32)cc1OC` (centres undefined) stands inactive: -23.9%; under `Cc1cccc(CNC(=O)c2ccc(NC(=O)N3CCSc4ccccc43)cc2)c1`, inactive: -15.1%.
In the case of `CCCc1cc(=O)[nH]c(Nc2cc(Cl)ccc2OC)n1`, the activation was inactive: -9.49%.
Consider `CCC(C)NC(=O)c1sc2ncccc2c1-n1c(C)ccc1C` (centres undefined), for which the activation is inactive: -4.85%.
Under `Cc1ccc(-n2nc(C(=O)N3CCN(c4cccc(C(F)(F)F)c4)CC3)c3c4ccccc4n(C)c3c2=O)cc1` stands inactive: 7.56%; under `Cc1ccc(C)c(-c2[nH]c3c(c2-c2c(-n4cccc4)n(C)c(=O)n(C)c2=O)c(=O)n(C)c(=O)n3C)c1`, inactive: -12%; under `CCOc1cc(C2c3c(oc4ccccc4c3=O)C(=O)N2c2ccccn2)ccc1O` (centres undefined), inactive: -5.12%.
Under `CCOC(=O)c1ccc2[nH]c(CSc3nnc(-c4cccc(F)c4)n3C)cc(=O)c2c1` stands inactive: -6.32%; under `Cc1ccc(CNc2nccn(-c3cc(C)cc(C)c3)c2=O)cc1`, inactive: 46.8%.
Turning to `Cc1ccc(CNc2cc(C)nc3nc(-c4cccc(C)c4)nn23)cc1`, the activation is inactive: 36.2%.
Under `COc1ccc(OC)c(NC(=O)c2cc(=O)c3c(C)cc(C)cc3o2)c1` stands inactive: -6.9%; under `CCOC(=O)c1c(NC(=O)c2cc(Cl)ccc2Cl)sc2c1CCCC2`, inactive: -3.57%.
For `CN(C(=O)CSc1nc2ccc(NC(=O)COc3ccccc3)cc2s1)c1ccccc1` the value was inactive: 5.04%.
Regarding `Cc1cc(C)n(CCc2nc3c4ccccc4nc(N4CCN(c5ccc(F)cc5)CC4)n3n2)n1`, the activation was inactive: 7.34%.
Under `Cc1cn2c(=O)c(S(=O)(=O)NCc3ccccc3Cl)c(C)nc2s1` stands inactive: -7.89%; under `CCOC(=O)c1cccc(NC(=O)CCc2c(C)nn(-c3ccc(N4CCOCC4)nn3)c2C)c1`, inactive: 7.48%.
Consider `CCN(C(=O)CSc1nc2n[nH]c(C)c2c(=N)n1-c1cccc(OC)c1)c1cccc(C)c1`, for which the activation was inactive: 24%.
For `CCN(C(=O)CSc1nc2ccccc2n1CC(=O)Nc1ccc(F)cc1F)c1ccccc1` the value was inactive: -9.8%; for `COc1ccc(-c2ccc(CCC(=O)O)n2-c2ccc(Cl)cc2C)cc1`, inactive: -5.49%.
For the molecule `COc1ccc(C2Oc3nc(SC)nnc3-c3ccccc3N2C(C)=O)cc1` (centres undefined), the activation was inactive: 2.85%.
`CCc1ccc(-n2nc(CO)c(C(=O)NCc3ccccc3OC)n2)cc1`: the activation was inactive: -1.56%.
Take `CCn1cc(S(=O)(=O)c2cccc(C)c2)c(=O)c2cc(F)c(N3CCN(c4ccccc4)CC3)cc21`: the activation was inactive: -8.71%.
Turning to `Cc1ccc2[nH]c3c(=O)n(CC(=O)NCCc4ccc(Cl)cc4)ncc3c2c1`, the activation was inactive: -14.4%.
Under `COc1ccc(NC(=O)C2CCN(c3cnccn3)CC2)cc1Cl` stands inactive: 5.98%.
For `COCCCn1c(=O)c2sccc2n2c(CCCC(=O)NCc3ccc(F)cc3)nnc12` the value was inactive: 0.409%.
For `O=C(Nc1ccc2oc(-c3ccc(Cl)cc3)nc2c1)c1ccc2ccccc2c1` the value was inactive: 3.26%; for `O=C(CCOc1ccccc1)N(Cc1cccnc1)c1nc2ccc(F)cc2s1`, inactive: -16.2%.
`CCOC(=O)c1c(NC(=O)c2ccc(OC)c(OC)c2)sc2c1CCCCC2`: the activation is inactive: 2.44%.
For `Cn1c(=O)oc2cc(S(=O)(=O)N3CCC(C(=O)N4CCN(c5ccc(Cl)cc5)CC4)CC3)ccc21`, the activation was inactive: 5.68%.
For `CCOc1ccccc1NC(c1nnc(-c2ccccc2)o1)c1ccc(F)cc1Cl` (centres undefined) the value was inactive: -28.5%.
Take `CCN(C(=O)c1cc2c(=O)oc3ccc(C)cc3c2s1)c1ccccc1F`: the activation is inactive: 4.97%.
For `CCN(CC)c1cc(C)c2cc(NC(=O)c3ccc(F)cc3Cl)ccc2n1`, the activation is inactive: 18.1%.
Under `CCN(CC)CCCN(c1ccccc1)C1Cc2ccccc2C1` stands inactive: -12.9%; under `CCOC(=O)c1cc(C)n(CC2CCC(C(=O)Nc3ccc(C(=O)OC)cc3)CC2)c1C` (centres undefined), inactive: -19.4%.
For `Cc1cccc(NS(=O)(=O)c2ccc(NC(=O)N3CCCC3)cc2)c1`, the activation was inactive: -2.29%.
In the case of `COc1ccc(C2CC(=O)N(Cc3ccccc3)c3c2c(C)nn3-c2nc(C)cc(C)n2)c(OC)c1` (centres undefined), the activation was inactive: -16.4%.
For `Cc1ccccc1CNC(=O)Nc1ccc2c(c1)N(C)C(=O)c1ccccc1S2` the value was inactive: -14.5%; for `O=c1cc(-c2ccccc2)c2ccc3c(c2o1)CN(Cc1ccccc1)CO3`, inactive: -13.2%; for `CCC(=O)N1CCc2cc(Br)cc(S(=O)(=O)CCC(=O)NCCc3ccccc3)c21`, inactive: -2.91%.
For `CCc1ccccc1NC(=O)Cn1cc2c(n1)CCC(C)C2` (centres undefined) the value was inactive: -14.4%; for `CCOC(=O)c1c(-c2ccccc2)oc2ccc(N(C(C)=O)S(=O)(=O)c3ccc(C)cc3)cc12`, inactive: -6.03%; for `CCc1ccc(NS(=O)(=O)c2ccc3[nH]cc(C(=O)N(C)Cc4ccco4)c(=O)c3c2)cc1`, inactive: -4.26%.
For `C/C=C/c1ccc(O)c(OC)c1` the value was inactive: 6.6%.

The values are drawn from PubChem BioAssay AID1346428 (National Center for Advancing Translational Sciences (NCATS), 2018).
